Laboratory results from the supplement of paper PMC8728848.
The list shows a part of the results.

Key:
Assay in all cases: glycan array binding signal (z-score within array); higher = stronger binding
Settings in all cases: glycan notation: IUPAC condensed, linker removed
Gal(b1-3)GlcNAc6S = molecular target: Gal(b1-3)GlcNAc6S
Method in brief: (§1)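 Glycan array data were curated from 3228 arrays in the Consortium for Functional Glycomics database and kept only where the protein sequence was available. Glycan names were converted to IUPAC-condensed notation, and columns mapping to the same glycan were averaged. The binding signal is a within-array Z-score, averaged across arrays of the same protein sequence at different concentrations or buffers and across linkers. Negative Z-scores can be read as non-binding.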

[1] = molecular target: Gal(b1-3)[Fuc(a1-4)]GlcNAc
Method in brief: as §1

[2] = molecular target: Gal(b1-3)[Fuc(a1-4)]GlcNAc(b1-2)Man(a1-3)[Gal(b1-3)[Fuc(a1-4)]GlcNAc(b1-2)Man(a1-6)]Man(b1-4)GlcNAc(b1-4)[Fuc(a1-6)]GlcNAc
Method in brief: as §1

[3] = molecular target: Gal(b1-3)[Fuc(a1-4)]GlcNAc(b1-3)Gal(b1-3)[Fuc(a1-4)]GlcNAc
Method in brief: as §1

[4] = molecular target: Gal(b1-3)[Fuc(a1-4)]GlcNAc(b1-3)Gal(b1-4)GlcNAc
Method in brief: as §1

[5] = molecular target: Gal(b1-3)[Fuc(a1-4)]GlcNAc(b1-3)Gal(b1-4)[Fuc(a1-3)]GlcNAc
Method in brief: as §1

[6] = molecular target: Gal(b1-3)[Fuc(a1-4)]GlcNAc(b1-6)GalNAc
Method in brief: as §1

[7] = molecular target: Gal(b1-3)[GlcNAc(b1-6)]GalNAc
Method in brief: as §1

[8] = molecular target: Gal(b1-3)[Neu5Ac(a2-6)]GalNAc
Method in brief: as §1

[9] = molecular target: Gal(b1-3)[Neu5Ac(a2-6)]GlcNAc(b1-6)Gal(b1-4)Glc
Method in brief: as §1

[10] = molecular target: Gal(b1-3)[Neu5Ac(b2-6)]GalNAc
Method in brief: as §1

Gal(b1-4)Gal = molecular target: Gal(b1-4)Gal
Method in brief: as §1

[11] = molecular target: Gal(b1-4)GalNAc(a1-3)[Fuc(a1-2)]Gal(b1-4)GlcNAc
Method in brief: as §1

[12] = molecular target: Gal(b1-4)GalNAc(b1-3)[Fuc(a1-2)]Gal(b1-4)GlcNAc
Method in brief: as §1

Gal(b1-4)Glc = molecular target: Gal(b1-4)Glc
Method in brief: as §1

Gal(b1-4)Glc6S = molecular target: Gal(b1-4)Glc6S
Method in brief: as §1

Gal(b1-4)GlcNAc = molecular target: Gal(b1-4)GlcNAc
Method in brief: as §1

[13] = molecular target: Gal(b1-4)GlcNAc(a1-6)Gal(b1-4)GlcNAc
Method in brief: as §1

Gal(b1-4)GlcNAc(b1-2)Man = molecular target: Gal(b1-4)GlcNAc(b1-2)Man
Method in brief: as §1

[14] = molecular target: Gal(b1-4)GlcNAc(b1-2)Man(a1-3)Man(b1-4)GlcNAc(b1-4)GlcNAc
Method in brief: as §1

[15] = molecular target: Gal(b1-4)GlcNAc(b1-2)Man(a1-3)[Gal(b1-4)GlcNAc(b1-2)Man(a1-6)]Man(b1-4)GlcNAc(b1-4)GlcNAc
Method in brief: as §1

[16] = molecular target: Gal(b1-4)GlcNAc(b1-2)Man(a1-3)[Gal(b1-4)GlcNAc(b1-2)Man(a1-6)]Man(b1-4)GlcNAc(b1-4)[Fuc(a1-6)]GlcNAc
Method in brief: as §1

[17] = molecular target: Gal(b1-4)GlcNAc(b1-2)Man(a1-3)[Gal(b1-4)GlcNAc(b1-2)][GlcNAc(b1-4)]Man(b1-4)GlcNAc(b1-4)GlcNAc
Method in brief: as §1

[18] = molecular target: Gal(b1-4)GlcNAc(b1-2)Man(a1-3)[GlcNAc(b1-2)Man(a1-6)]Man(b1-4)GlcNAc(b1-4)GlcNAc
Method in brief: as §1

[19] = molecular target: Gal(b1-4)GlcNAc(b1-2)Man(a1-3)[Man(a1-6)]Man(b1-4)GlcNAc(b1-4)GlcNAc
Method in brief: as §1

[20] = molecular target: Gal(b1-4)GlcNAc(b1-2)Man(a1-6)Man(b1-4)GlcNAc(b1-4)GlcNAc
Method in brief: as §1

[21] = molecular target: Gal(b1-4)GlcNAc(b1-2)Man(a1-6)[GlcNAc(b1-2)Man(a1-3)]Man(b1-4)GlcNAc(b1-4)GlcNAc
Method in brief: as §1

[22] = molecular target: Gal(b1-4)GlcNAc(b1-2)Man(a1-6)[Man(a1-3)]Man(b1-4)GlcNAc(b1-4)GlcNAc
Method in brief: as §1

[23] = molecular target: Gal(b1-4)GlcNAc(b1-2)[Gal(b1-4)GlcNAc(b1-4)]Man(a1-3)[Gal(b1-4)GlcNAc(b1-2)Man(a1-6)]Man(b1-4)GlcNAc(b1-4)GlcNAc
Method in brief: as §1

[24] = molecular target: Gal(b1-4)GlcNAc(b1-2)[Gal(b1-4)GlcNAc(b1-4)]Man(a1-3)[Gal(b1-4)GlcNAc(b1-2)[Gal(b1-4)GlcNAc(b1-6)]Man(a1-6)]Man(b1-4)GlcNAc(b1-4)GlcNAc
Method in brief: as §1

[25] = molecular target: Gal(b1-4)GlcNAc(b1-2)[Gal(b1-4)GlcNAc(b1-4)]Man(a1-3)[GlcNAc(b1-4)][Gal(b1-4)GlcNAc(b1-2)Man(a1-6)]Man(b1-4)GlcNAc(b1-4)GlcNAc
Method in brief: as §1

[26] = molecular target: Gal(b1-4)GlcNAc(b1-2)[Gal(b1-4)GlcNAc(b1-4)]Man(a1-3)[GlcNAc(b1-4)][Gal(b1-4)GlcNAc(b1-2)[Gal(b1-4)GlcNAc(b1-6)]Man(a1-6)]Man(b1-4)GlcNAc(b1-4)GlcNAc
Method in brief: as §1

[27] = molecular target: Gal(b1-4)GlcNAc(b1-2)[Gal(b1-4)GlcNAc(b1-4)]Man(a1-3)[GlcNAc(b1-4)][Gal(b1-4)GlcNAc(b1-2)[Gal(b1-4)GlcNAc(b1-6)]Man(a1-6)]Man(b1-4)GlcNAc(b1-4)[Fuc(a1-6)]GlcNAc
Method in brief: as §1

[28] = molecular target: Gal(b1-4)GlcNAc(b1-2)[Gal(b1-4)GlcNAc(b1-6)]Man(a1-6)[Gal(b1-4)GlcNAc(b1-2)Man(a1-3)]Man(b1-4)GlcNAc(b1-4)GlcNAc
Method in brief: as §1

[29] = molecular target: Gal(b1-4)GlcNAc(b1-2)[Gal(b1-4)GlcNAc(b1-6)]Man(a1-6)[Gal(b1-4)GlcNAc(b1-2)Man(a1-3)]Man(b1-4)GlcNAc(b1-4)[Fuc(a1-6)]GlcNAc
Method in brief: as §1

[30] = molecular target: Gal(b1-4)GlcNAc(b1-2)[Gal(b1-4)GlcNAc(b1-6)]Man(a1-6)[GlcNAc(b1-4)][Gal(b1-4)GlcNAc(b1-2)Man(a1-3)]Man(b1-4)GlcNAc(b1-4)GlcNAc
Method in brief: as §1

[31] = molecular target: Gal(b1-4)GlcNAc(b1-3)Gal(b1-3)GlcNAc
Method in brief: as §1

[32] = molecular target: Gal(b1-4)GlcNAc(b1-3)Gal(b1-4)Glc
Method in brief: as §1

[33] = molecular target: Gal(b1-4)GlcNAc(b1-3)Gal(b1-4)GlcNAc
Method in brief: as §1

[34] = molecular target: Gal(b1-4)GlcNAc(b1-3)Gal(b1-4)GlcNAc(b1-3)Gal(b1-4)GlcNAc
Method in brief: as §1

[35] = molecular target: Gal(b1-4)GlcNAc(b1-3)Gal(b1-4)[Fuc(a1-3)GlcNAc(b1-6)]Gal(b1-4)Glc
Method in brief: as §1

[36] = molecular target: Gal(b1-4)GlcNAc(b1-3)Gal(b1-4)[Fuc(a1-3)]GlcNAc(b1-3)Gal(b1-4)[Fuc(a1-3)]GlcNAc
Method in brief: as §1

[37] = molecular target: Gal(b1-4)GlcNAc(b1-3)GalNAc
Method in brief: as §1

[38] = molecular target: Gal(b1-4)GlcNAc(b1-3)[Gal(b1-4)GlcNAc(b1-6)]Gal(b1-4)GlcNAc
Method in brief: as §1

[39] = molecular target: Gal(b1-4)GlcNAc(b1-3)[Gal(b1-4)GlcNAc(b1-6)]GalNAc
Method in brief: as §1

B1: CIH1 (Colletotrichum higginsianum) (protein)
chain: LPQATPTTPTPTSASAAATISATSSPTCSPGPVIDYTVVSGDTLTIISQRFSSGICNIADASGITNPNFLSLGQVLQVPTYVCTPDNTSCLAKEGSDTCVEGGPATHTIVAGDTFFLVAQSLGLDVNALLAANEGVDPLLLQIGDVINIPVC
- glycan array binding signal (z-score) (Gal(b1-3)GlcNAc6S): -0.064
- glycan array binding signal (z-score) [1]: -0.054
- glycan array binding signal (z-score) [2]: -0.025
- glycan array binding signal (z-score) [3]: -0.078
- glycan array binding signal (z-score) [4]: -0.063
- glycan array binding signal (z-score) [5]: -0.046
- glycan array binding signal (z-score) [6]: -0.051
- glycan array binding signal (z-score) [7]: -0.078
- glycan array binding signal (z-score) [8]: -0.07
- glycan array binding signal (z-score) [9]: -0.071
- glycan array binding signal (z-score) [10]: -0.073
- glycan array binding signal (z-score) (Gal(b1-4)Gal): -0.055
- glycan array binding signal (z-score) [11]: -0.09
- glycan array binding signal (z-score) [12]: -0.067
- glycan array binding signal (z-score) (Gal(b1-4)Glc): -0.042
- glycan array binding signal (z-score) (Gal(b1-4)Glc6S): -0.078
- glycan array binding signal (z-score) (Gal(b1-4)GlcNAc): -0.054
- glycan array binding signal (z-score) [13]: -0.094
- glycan array binding signal (z-score) (Gal(b1-4)GlcNAc(b1-2)Man): -0.082
- glycan array binding signal (z-score) [14]: -0.093
- glycan array binding signal (z-score) [15]: -0.074
- glycan array binding signal (z-score) [16]: -0.084
- glycan array binding signal (z-score) [17]: -0.06
- glycan array binding signal (z-score) [18]: -0.081
- glycan array binding signal (z-score) [19]: -0.059
- glycan array binding signal (z-score) [20]: -0.065
- glycan array binding signal (z-score) [21]: -0.085
- glycan array binding signal (z-score) [22]: -0.064
- glycan array binding signal (z-score) [23]: -0.069
- glycan array binding signal (z-score) [24]: -0.07
- glycan array binding signal (z-score) [25]: -0.014
- glycan array binding signal (z-score) [26]: -0.064
- glycan array binding signal (z-score) [27]: -0.059
- glycan array binding signal (z-score) [28]: -0.062
- glycan array binding signal (z-score) [29]: -0.069
- glycan array binding signal (z-score) [30]: -0.084
- glycan array binding signal (z-score) [31]: -0.038
- glycan array binding signal (z-score) [32]: -0.08
- glycan array binding signal (z-score) [33]: -0.067
- glycan array binding signal (z-score) [34]: -0.084
- glycan array binding signal (z-score) [35]: -0.061
- glycan array binding signal (z-score) [36]: -0.079
- glycan array binding signal (z-score) [37]: -0.071
- glycan array binding signal (z-score) [38]: -0.07
- glycan array binding signal (z-score) [39]: -0.05
